# Measured values: PMC4336329 (PLoS ONE, 2015)
# The campaign covered roughly 310,000 compounds. About 2,200 (0.71%) showed an effect of 50% or more. Effects have a minus sign here. The list shows a part of the results.
# Molecular target: human ether-à-go-go-related gene (hERG) potassium channel (human, UniProt Q12809)
# Experiment: primary screen, population patch clamp on CHO cells stably expressing hERG
# Chain of human ether-à-go-go-related gene (hERG) potassium channel (Q12809 whole entry, looked up): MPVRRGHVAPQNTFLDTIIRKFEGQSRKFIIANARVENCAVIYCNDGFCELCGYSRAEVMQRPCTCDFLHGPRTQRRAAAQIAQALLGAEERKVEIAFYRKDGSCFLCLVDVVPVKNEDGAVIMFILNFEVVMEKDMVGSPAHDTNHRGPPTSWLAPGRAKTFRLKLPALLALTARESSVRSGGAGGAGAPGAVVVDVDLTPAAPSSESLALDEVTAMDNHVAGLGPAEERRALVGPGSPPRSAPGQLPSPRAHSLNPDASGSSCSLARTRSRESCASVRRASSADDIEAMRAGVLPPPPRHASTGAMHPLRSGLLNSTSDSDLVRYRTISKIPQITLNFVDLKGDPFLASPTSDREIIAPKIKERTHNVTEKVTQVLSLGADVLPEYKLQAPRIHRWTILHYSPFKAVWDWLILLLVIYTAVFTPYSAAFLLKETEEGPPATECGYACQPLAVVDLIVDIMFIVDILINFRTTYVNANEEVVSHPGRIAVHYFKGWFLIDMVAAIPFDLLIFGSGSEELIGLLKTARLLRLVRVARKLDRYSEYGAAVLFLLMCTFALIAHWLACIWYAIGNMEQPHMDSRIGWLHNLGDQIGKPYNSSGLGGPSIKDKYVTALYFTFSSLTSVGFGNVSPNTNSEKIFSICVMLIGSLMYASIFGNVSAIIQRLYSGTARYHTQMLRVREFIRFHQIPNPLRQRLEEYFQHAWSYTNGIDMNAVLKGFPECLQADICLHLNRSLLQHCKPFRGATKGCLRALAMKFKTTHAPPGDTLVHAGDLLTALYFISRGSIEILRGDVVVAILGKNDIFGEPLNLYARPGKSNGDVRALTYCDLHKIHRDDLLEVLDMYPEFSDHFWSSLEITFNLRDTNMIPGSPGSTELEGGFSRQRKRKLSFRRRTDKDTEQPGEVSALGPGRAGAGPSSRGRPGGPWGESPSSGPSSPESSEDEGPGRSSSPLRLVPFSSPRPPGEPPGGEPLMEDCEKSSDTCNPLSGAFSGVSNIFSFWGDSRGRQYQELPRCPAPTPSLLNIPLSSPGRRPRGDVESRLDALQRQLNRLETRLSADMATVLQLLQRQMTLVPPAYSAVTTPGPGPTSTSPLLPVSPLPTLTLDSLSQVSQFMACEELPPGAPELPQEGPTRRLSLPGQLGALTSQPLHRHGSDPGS
row,SMILES,"hERG current change (%, negative = inhibition) at 1uM"
1,CCS(=O)(=O)Nc1ccc(Cc2ccncc2)cc1,9.28%
2,O=C(NNc1ccc(Cl)cc1)c1sccc1Cl,8.76%
3,CCOC(=O)NCc1ccc2[nH]c(C)cc2c1,17.9%
4,COc1ccccc1NC(=O)N1CCCC1C(=O)NCC1CCCO1 (stereo not drawn),1.56%
5,COc1cc(Cl)c(C)cc1NC(=O)COC(=O)c1cc[n+]([O-])cc1,-5%
6,O=S(=O)(Nc1cccc(F)c1)c1cccc2nsnc12,4.15%
7,CC(=O)NCCn1c(SCc2ccccc2F)nc2ccccc2c1=O,5%
8,OC1CCN(c2c3c(nc4cc(-c5ccc(Cl)cc5)nn24)CCC3)CC1,5.81%
9,Cn1c(SCCOc2ccccc2Cl)nnc1-c1ccncc1,2.48%
10,O=C(COc1ccc(Cl)cc1)NCCCn1ccnc1,-13.5%
11,O=C(OCC(=O)c1ccc[nH]1)c1ccc(Br)cc1,11.4%
12,CCOc1cc(C(=O)NCC(=O)N2CCC3(CC2)NCCc2[nH]cnc23)cc(OCC)c1OCC,13.1%
13,CCN(CC)c1ccc(NC(=O)COC(=O)COc2ccccc2[N+](=O)[O-])cc1,13.1%
14,CC(C)COc1ccc(Cc2c(O)[nH]c(=S)[nH]c2=O)cc1,13.9%
15,Cc1ccc(SCC(=O)N(C)CC(=O)Nc2cccc(F)c2)c(C)c1,17.8%
16,O=C(NCc1cccnc1)c1c(F)c(F)c(F)c(F)c1F,-6.52%
17,O=C1CSC(c2ccccc2)N1c1nc(-c2ccc(Cl)cc2Cl)cs1 (stereo not drawn),-1.24%
18,COc1ccc(C/C(N)=N/OC(=O)Cc2ccccc2)cc1,7.22%
19,O=C(CCNC(=O)c1ccc([N+](=O)[O-])cc1)NC1CCCCCC1,-1.26%
20,COC(=O)C1CCN(C(=O)CSc2nnc(-c3ccncc3)o2)CC1,-9.3%
21,COc1ccc(N2CCN(C(=O)NCc3ccc(C)cc3)CC2)cc1,7.68%
22,CC(=O)/C(=N/Nc1cccc(Cl)c1)N1CCOCC1.Cl,11.9%
23,OCC1OC(n2cnc3c(NC4CCCCC4)ncnc32)C(O)C1O (stereo not drawn),8.99%

row,SMILES,"hERG current change (%, negative = inhibition) at 1uM"
1,COc1cc(C)c(NC(c2ccccc2)c2ccccc2)cc1OC,8.51%
2,CN(C)c1ccc(CN(Cc2ccco2)C(=O)c2ccco2)cc1,3.64%
3,CCC[C@@H](NS(=O)(=O)c1ccc(C)cc1)C(=O)Oc1ccc2c3c(c(=O)oc2c1)CCC3,7.25%
4,NC(=O)c1ccc(F)cc1,14.1%
5,NC(=O)C1CCN(C2CC(=O)N(Cc3cccs3)C2=O)CC1 (stereo not drawn),-0.395%
6,O=C(CSc1ccc(Cl)cc1)Nc1ccccc1N1CCN(C(=O)c2ccc(Cl)cc2)CC1,16.7%
7,Cc1cccc(C)c1NC(=O)CN(C)C(=O)C1CC1C (stereo not drawn),7.9%
8,C[C@@H]1C[C@H]2[C@@H]3CCC4=CC(=O)C=C[C@]4(C)[C@@]3(F)[C@@H](O)C[C@]2(C)[C@@]1(O)C(=O)CO,6.89%
9,CCOc1cc(C(=O)CSc2nnc(CNc3ccc(Cl)cc3)o2)ccc1NC(=O)CC,12%
10,CCOc1ccc(S(=O)(=O)NCc2ccc3c(c2)OCO3)cc1,14.5%
11,CCN(CC)CCNCC1C(=O)O[C@@H]2C[C@@]3(C)CCC[C@H](C)C3=C[C@H]12 (stereo partly drawn),-1.21%
12,CCOC(=O)c1c(NC(=O)CSc2ncn[nH]2)sc(C(C)=O)c1C,0.398%
13,COCCN(C(=O)CSc1nnc(C)n1-c1ccccc1)c1c(N)n(Cc2ccccc2)c(=O)[nH]c1=O,11.2%
14,O=S1(=O)CCN(CCc2c[nH]c3ccccc23)CC1,11%
15,O=C(CSc1nnc(-c2ccncc2)n1Cc1ccco1)Nc1ccccc1Cl,-7.09%
16,CCOC(=O)CC1COc2ccccc2N1C(=O)c1cccc([N+](=O)[O-])c1 (stereo not drawn),6.41%
17,CCC(=O)N1N=C(c2ccc(NS(=O)(=O)CC)cc2)CC1c1ccc(C)cc1 (stereo not drawn),6.3%
18,O=C(CCN1C(=O)c2ccccc2C1=O)Nc1ccc(S(=O)(=O)N2CCOCC2)cc1,2.33%
19,Cc1ccc2nc(SCC(=O)c3ccc4c(c3)OCO4)[nH]c2c1,5.16%
20,COc1cccc(-c2noc(-c3ccc4c(c3)OCO4)n2)c1,8.74%
21,Cn1c(N2CCN(S(=O)(=O)c3ccc(Cl)cc3)CC2)nc2ccccc21,-23.2%
22,COC(=O)c1c(C)[nH]c(C(=O)/C=C/c2cccc(Cl)c2)c1C,10.1%
23,Cc1cccc(OCC(=O)NCC(=O)n2nc(C)cc2C)c1,12.5%

row,SMILES,"hERG current change (%, negative = inhibition) at 1uM"
1,CCOC(=O)C(Cc1ccc(NC(C)=O)cc1)N1C(=O)c2ccccc2C1=O (stereo not drawn),4.95%
2,O=C(NCc1n[nH]c(=S)n1-c1ccc([N+](=O)[O-])cc1)c1ccc(S(=O)(=O)N2CCOCC2)cc1,9.68%
3,CC(CCc1ccccc1)NC(=O)c1cccs1 (stereo not drawn),-2.05%
4,Cc1ccccc1NC(=O)c1c(-c2ccccc2)noc1C,11.4%
5,CCN(C1CCS(=O)(=O)C1)S(=O)(=O)c1cccs1 (stereo not drawn),18.5%
6,CCc1ccc(NC(=O)N(CCCOC(C)C)C2CCN(C(C)=O)CC2)cc1,-6.37%
7,COc1ccccc1C/C(N)=N/OC(=O)c1ccc2c(c1)OCO2,20.9%
8,Cc1nn2c(nc1=O)SCC(c1ccccc1)=N2,3.52%
9,O=C1CSC(=S)N1c1ccc(F)cc1,16.4%
10,CC(=O)Nc1ccc(N2C(=O)CC(Sc3nc(C)cc(C)n3)C2=O)cc1 (stereo not drawn),12.4%
11,O=C(c1ccc(NS(=O)(=O)c2ccccc2)cc1)N1CCCC1,7.69%
12,Cc1ccc(-c2cc(-c3ccccc3Cl)c(C#N)c(N)n2)o1,8.84%
13,S=c1[nH]ccn1-c1ccccc1Cl,16.8%
14,COc1ccc2nc(C)cc(SCC(=O)OC(C)C)c2c1,18.6%
15,COc1cccc(C2=CC(c3ccc(OC)c(OC)c3)NC(=S)N2)c1 (stereo not drawn),10.2%
16,CCCOC(=O)CSc1nc(N)c(C#N)c(CC)c1C#N,2.28%
17,COc1cc(N)c(Cl)cc1Cl,10.4%
18,COc1cccc(CNS(=O)(=O)c2ccc3c(c2)N(C(C)=O)CCS3)c1,6.26%
19,O=C(COC(=O)C1CCCN1C(=O)c1cccs1)Nc1ccc2c(c1)OCO2 (stereo not drawn),2.68%
20,O=C(/C=C/c1ccco1)Nc1ccc(Cl)c(S(=O)(=O)N2CCOCC2)c1,7.91%
21,Cc1c(C(=O)OCCOc2ccccc2)[nH]c2c1C(=O)CCC2,3.02%
22,COC(=O)c1ccc(NC(=O)CCN2C(=O)C3CC=CCC3C2=O)cc1 (stereo not drawn),3.77%
23,O=C(COC(=O)Cc1c[nH]c2ccccc12)NCCc1ccccc1,8.04%

row,SMILES,"hERG current change (%, negative = inhibition) at 1uM"
1,Cc1nc2sc(-c3ccccc3)cc2c(=O)n1-n1cccc1,7.64%
2,Cc1ccc(NC(=S)NC(=O)C2CCCC2)cc1C,13.3%
3,O=C1/C(=N\S(=O)(=O)c2cccs2)C([n+]2ccc(CCCc3ccccc3)cc2)=C([O-])c2ccccc21,-12.5%
4,COc1ccccc1C1CCN(Cc2cccc3ccccc23)CC1,2.31%
5,C=C1C(=O)C=C[C@]2(C)C[C@@H]3OC(=O)[C@](C)(O)[C@H]3C[C@@H]12,8.44%
6,CN(CCNC(=O)CCCOc1cc(=O)n(C)c2ccccc12)Cc1ccccc1,4.44%
7,COc1ccc(-n2cnc3cc(C(=O)N4CCC5(CC4)OCCO5)ccc32)cc1,-2.2%
8,CCC(C)NC(=O)c1c(N)n(/N=C/c2cccnc2)c2nc3ccccc3nc12 (stereo not drawn),12.2%
9,O=C(NCC(=O)N(c1ccc2c(c1)OCO2)C(C(=O)NC1CCCC1)c1cccs1)c1ccco1 (stereo not drawn),5.66%
10,CC(=O)C1=C(C)NC(SCC(N)=O)=C(C#N)C1c1ccco1 (stereo not drawn),18.3%
11,CCOC(=O)c1cc2n(n1)C(C(F)(F)C(F)(F)F)CC(C)N2 (stereo not drawn),8.84%
12,CSCC[C@H](NC(=O)[C@@H]1Cc2ccccc2CN1)C(=O)Nc1cccc(C)c1,-3.94%
13,Cc1ccc(N2CC(NC(=O)C3CC3)CC2=O)cc1 (stereo not drawn),-12.4%
14,COC(=O)C1=C(C(=O)OC)[C@@H]2N(Cc3ccccc3)c3ccccc3[C@@]23C[C@@H](C(=O)OC)N(C(=O)NC2CCCCC2)C3=N1,6.65%
15,Cc1ccc(C(=O)N/C(=C\c2cn(S(=O)(=O)N(C)C)c3ccccc23)C(=O)NCCCN2CCOCC2)cc1,6.78%
16,CCCS(=O)(=O)N1CCCC(C(=O)NCCN(C)Cc2ccccc2)C1 (stereo not drawn),3.8%
17,CCOc1ccc(-n2c(=O)[nH]cc(C(=O)Nc3ccc(OC)c(OC)c3)c2=O)cc1,12.5%
18,CCN1CCn2c3c(c4cccc(C)c42)CCCC31.Cl (stereo not drawn),6.92%
19,CCc1c(C)sc(NC(=O)OC)c1C(=O)N1CCCCC1,9.16%
20,COC(=O)[C@H](C)NC(=O)Nc1ccc(OC)cc1OC,-2.62%
21,COC(=O)c1ccccc1NC(=O)NCc1ccccn1,4.2%
